From US9290476B2, “Methylene linked quinolinyl modulators of RORγt” (Janssen Pharmaceutica NV, priority 2012, dated 2016) come the findings set out here.

Molecules are shown by their SMILES. For part of its entries the source gives two or more results. This list holds those alone. There may be further records. Values that stand side by side seem to repeat one measurement (runs, samples, wells or individuals).

The assay deals with human RORγt LBD (Homo sapiens (Human), UniProt P51449). Put plainly: RORγt reporter assay (GAL4-RORγt LBD luciferase in HEK293T cells). Type of assay: cell-based. The conditions noted are these: 24 hours compound treatment. An excerpt:
A reporter assay was used to test functional activity of RORγt modulatory compounds on transcriptional activation driven by the RORγt LBD. Cells used in the assay were co-transfected with two constructs. The first construct, pBIND-RORγt LBD, contained the wild type human RORγt LBD fused to the DNA binding domain of the GAL4 protein. The second construct, pGL4.31 (Promega Cat no. C935A), contained multiple GAL4 responsive DNA elements upstream of firefly luciferase. […] The mutant construct was called pBIND-RORγt-AF2.
The pBIND vector contains the GAL4 DNA Binding Domain (GAL4 DBD) and the renilla luciferase gene under control of the SV40 promoter. […]
The reporter assay was performed by transiently transfecting HEK293T cells with 5 ng of pBIND-RORγt LBD or pBIND-RORγt LBD-AF2 and 5 μg pGL4.31 (Promega Cat no. C935A) using Fugene 6 ([…] Cat no. E2691) at a 1:6 ratio of DNA: Fugene 6 in a T-75 flask in which cells were at least 80% confluent. […] Dual Glo Luciferase Reagent (50 μL/well) was then added and firefly luciferase luminescence was read on an Envision after a ten minute incubation. Finally, Stop and Glo reagent (50 μL/well) was added and renilla luciferase luminescence was read on an Envision after a ten minute incubation. To calculate the effect of compounds on RORγt activity, the ratio of firefly to renilla luciferase was determined and plotted against compound concentration. […]
(A reporter such as luciferase makes a cellular process visible.)

Chain of human RORγt LBD (P51449 258-518): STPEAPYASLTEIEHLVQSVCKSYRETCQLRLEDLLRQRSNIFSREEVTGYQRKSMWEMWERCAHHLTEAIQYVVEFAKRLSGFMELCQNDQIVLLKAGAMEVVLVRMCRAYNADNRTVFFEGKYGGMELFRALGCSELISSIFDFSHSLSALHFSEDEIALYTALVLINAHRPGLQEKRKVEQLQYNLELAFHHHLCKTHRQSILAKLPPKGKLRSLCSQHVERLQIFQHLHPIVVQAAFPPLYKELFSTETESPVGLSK

`COc1nc2ccc(C(O)(c3cnnn3C)c3cnc(C)n3C)cc2c(C#N)c1Cc1ccc(C(F)(F)F)cc1` (single isomer, unassigned) [Example 81C, 6-((1,2-Dimethyl-1H-imidazol-5-yl)(hydroxy)(1-methyl-1H-1,2,3-triazol-5-yl)methyl)-2-methoxy-3-(4-(trifluoromethyl)benzyl)quinoline-4-carbonitrile]: the IC50 (commonly the concentration needed to halve the response being measured) was 5 nM and ~0.1 nM [one cell].
